ChEMBL document CHEMBL4888484, “Replenishing the malaria drug discovery pipeline: Screening and hit evaluation of the MMV Hit Generation Library 1 (HGL1) against asexual blood stage Plasmodium falciparum ,using a nano luciferase reporter read-out” (2022)
The whole screen tested about 150,000 compounds, of which about 540 (0.36%) showed an effect of 50% or more. The list shows a part of the results.

These compounds were tested on Plasmodium falciparum (assay: Primary screen in NF54 nanoGlo assay, in single point, at 2uM, 72h; a lower Z score goes with more inhibition). Conditions: timepoint 72 hour.
Assay type: functional, Erythrocyte

Point of comparison: CC(=O)Nc1c(F)cc(C(C)=O)cc1F, “% Inhibition” value -14%. Against it:
- C[C@@H](C(=O)N(C)C)N(C)Cc1cnc(NCc2ccccc2)nc1 — higher, 5%
- CCOC(=O)C1CCCN(C(=O)C2CC(c3cccc(C)c3)CN(C(C)=O)C2)C1 (configuration not stated) — higher, -7%
- O=C1CCC2(CCN1Cc1ccccc1)CCN(C(=O)c1cccc(F)c1)CC2 — higher, 5%
- N#Cc1ccc2nc(NCCn3ccnc3)ccc2c1 — higher, -7%
- O=C(NCCc1nnc2ccccn12)Nc1nncs1 — higher, -1%
- COCCC1(CNC(=O)CCC(=O)c2ccccc2)CC1 — higher, 0%
- CCc1nc(N(CCOC)CCC(=O)NCc2ccco2)c2cc(Cl)cc(Cl)c2n1 — higher, -9%
- C[C@H](NC(=O)c1cc(C2CC2)no1)c1ncon1 — higher, -7%
- COc1cncc(O[C@H]2CCCN(C(=O)c3ccc(C#N)cc3)C2)n1 — higher, -10%
- CN1C[C@@H](c2ccccc2)CC2(CCN(Cc3cccnc3)CC2)C1 — higher, -9%
- Cc1ccccc1-c1cc(C(=O)Nn2cnnc2)c2ccccc2n1 — higher, -11%
- CC1CCCC(C)N1C(=O)CN1CCCC1c1nnc2ccccn12 (configuration not stated) — higher, -2%
- O=C1N[C@]2(CCc3ccccc3C2)C(=O)N1Cc1cccc2ncnn12 — higher, 10%
- CC[C@@H](C(=O)N1CCCc2c(F)ccc(F)c21)N1CCCC1=O — higher, -10%
- Cc1cc2cc(C(=O)NCC(=O)Nc3cccnc3)oc2cc1C — lower, -27%
- CN1/C(=N/NC(=O)c2ccccc2)C(=O)c2ccccc21 — higher, 8%
- CC(C1CC1)N(Cc1ccccc1)C(=O)C1CCCN(C(=O)c2cccs2)C1 (configuration not stated) — higher, 3%
- CC(C)N1C[C@@H](NC(=O)c2cccc(NCc3cccs3)c2)CC1=O — higher, 5%
- CCc1cc(N2CCCO2)nc(-c2ccncc2)n1 — higher, 1%
- CCCCN1CCCC[C@@H]1CNC(=O)Nc1cccnc1 — higher, -8%
- Clc1cnccc1CN1CCCCCC1 — higher, 3%
- c1ccc(N2CC[C@H](C3CCOCC3)C2)nc1 — higher, -5%
- Cc1ccc(NS(=O)(=O)c2cc(-c3csc(C)n3)ccc2C)c(Cl)c1 — higher, 7%
- Cc1cc(C(=O)NC[C@H]2CCCOC2)cc(O)n1 — higher, -4%
- COc1cccc(Cc2c(C)nc(C3CC3)nc2N2CCN(C(=O)[C@H]3CCOC3)CC2)c1 — higher, 4%
- Cc1cnc(NCCCS(C)(=O)=O)nc1 — higher, -7%
- CCN(C(=O)N1CCC(OC2CCCCC2)CC1)C(C)C — higher, -1%
- Cc1cc(=O)[nH]c(CCn2ccnc2-c2ccnc3ccccc23)n1 — lower, -18%
- Fc1ccc(CO[C@H]2CCCc3c[nH]nc32)cc1Br — higher, -10%
- CCC(CC)C(=O)N1CCC[C@H](N(CCN2CCCCC2)C(C)=O)C1 — higher, -9%
- CCc1nc(-c2ccccc2)nc(N2CCN(C(=O)c3ccccc3Cl)CC2)c1Cc1cc(C)ccc1C — lower, -15%
- O=c1c2ccccc2ncn1CCCc1ncnn1CCO — higher, -5%
- Cc1cnccc1CC(=O)N[C@H](C)c1ccc(Br)cc1 — higher, -5%
- Cc1cc(C)nc(CCNc2cc(C3CC(O)C3)nc(N)n2)n1 (configuration not stated) — higher, -10%
- CN(Cc1csc(-c2ccoc2)n1)C1CCS(=O)(=O)CC1 — lower, -16%
- Cc1ccc(N2CC[C@@](O)(C(F)(F)F)C2)nn1 — higher, 0%
- CC1CCN(C(=O)NCCOCC2CCCO2)C(C)C1 (configuration not stated) — higher, 12%
- O=C(COC1CCCC1)Nc1nc(-c2ccco2)cs1 — higher, -11%
- C[C@H]1CCN(C(=O)c2coc(Br)c2)CCS1(=O)=O — higher, 6%
- Cc1nc2n(n1)C[C@@H](Nc1ncc(Cl)cc1Br)CC2 — higher, -2%
- CCCc1nc(CNC(=O)c2cnc[nH]2)cs1 — higher, -6%
- COc1ccc(C2CC(C)N(C(=O)[C@@H]3CCCN3)C2)cc1 (some centres not stated) — higher, -4%
- COc1ccccc1Oc1nc(N2CCN(C)CC2)nc2c1CN(C(=O)c1cccc(C)c1)CC2 — lower, -18%
- CS(=O)(=O)CC1(CC(=O)N(C2CC2)[C@H]2CCc3ccccc32)CC1 — higher, 5%
- COc1ccc([C@H]2NCCc3[nH]cnc32)cc1Cn1cncn1 — higher, -7%
- Cc1cnn(Cc2cc(C(=O)NC3c4ccccc4CC3O)no2)c1 (configuration not stated) — higher, -8%
- CCOc1cccc(NC(=O)N(C)Cc2nc(C)c[nH]2)c1 — higher, -1%
- CC1CCN(C(=O)c2cnc3[nH]c(=O)[nH]c3c2)C(C(N)=O)C1 (configuration not stated) — higher, 0%
- CN(Cc1ccc2nc(N)sc2c1)C1CC1 — higher, -3%
- CC(C)CCNC(=O)CC[C@@H](C)[C@H]1CC[C@H]2[C@@H]3[C@@H](O)C[C@@H]4C[C@H](O)CC[C@]4(C)[C@H]3CC[C@]12C — higher, -4%
- COc1ccc(-c2nc3c(c(N4CCN(C)CC4)n2)CCOCC3)cc1 — higher, -3%
- CCCc1ncc(CNC(=O)[C@H](C)c2cn(C)c3ccccc23)o1 — higher, -8%
- C#CC(CC)(CC)NS(=O)(=O)c1ccc(Cl)cc1 — higher, -4%
- O=C(Nc1nsc(-c2ccc(Cl)cc2)n1)c1ccccc1F — higher, -10%
- COc1ncc(C(=O)N2CCO[C@H](C(C)(C)C)CC2)cn1 — higher, -9%

Point of comparison: COCCC1(CNC(=O)CCC(=O)c2ccccc2)CC1, Z score -0.08. Against it:
- C[C@@H](C(=O)N(C)C)N(C)Cc1cnc(NCc2ccccc2)nc1 — lower, -0.99
- CCOC(=O)C1CCCN(C(=O)C2CC(c3cccc(C)c3)CN(C(C)=O)C2)C1 (configuration not stated) — higher, 1.14
- O=C1CCC2(CCN1Cc1ccccc1)CCN(C(=O)c1cccc(F)c1)CC2 — lower, -0.54
- N#Cc1ccc2nc(NCCn3ccnc3)ccc2c1 — higher, 1.09
- O=C(NCCc1nnc2ccccn12)Nc1nncs1 — higher, 0.11
- CCc1nc(N(CCOC)CCC(=O)NCc2ccco2)c2cc(Cl)cc(Cl)c2n1 — higher, 1.7
- C[C@H](NC(=O)c1cc(C2CC2)no1)c1ncon1 — higher, 0.96
- COc1cncc(O[C@H]2CCCN(C(=O)c3ccc(C#N)cc3)C2)n1 — higher, 1.68
- CN1C[C@@H](c2ccccc2)CC2(CCN(Cc3cccnc3)CC2)C1 — higher, 1.21
- Cc1ccccc1-c1cc(C(=O)Nn2cnnc2)c2ccccc2n1 — higher, 1.43
- CC1CCCC(C)N1C(=O)CN1CCCC1c1nnc2ccccn12 (configuration not stated) — higher, 0.21
- O=C1N[C@]2(CCc3ccccc3C2)C(=O)N1Cc1cccc2ncnn12 — lower, -1.66
- CC(=O)Nc1c(F)cc(C(C)=O)cc1F — higher, 1.34
- CC[C@@H](C(=O)N1CCCc2c(F)ccc(F)c21)N1CCCC1=O — higher, 1.33
- Cc1cc2cc(C(=O)NCC(=O)Nc3cccnc3)oc2cc1C — higher, 2.72
- CN1/C(=N/NC(=O)c2ccccc2)C(=O)c2ccccc21 — lower, -1.03
- CC(C1CC1)N(Cc1ccccc1)C(=O)C1CCCN(C(=O)c2cccs2)C1 (configuration not stated) — lower, -0.38
- CC(C)N1C[C@@H](NC(=O)c2cccc(NCc3cccs3)c2)CC1=O — lower, -0.74
- CCc1cc(N2CCCO2)nc(-c2ccncc2)n1 — higher, -0.06
- CCCCN1CCCC[C@@H]1CNC(=O)Nc1cccnc1 — higher, 1.16
- Clc1cnccc1CN1CCCCCC1 — lower, -0.48
- c1ccc(N2CC[C@H](C3CCOCC3)C2)nc1 — higher, 0.72
- Cc1ccc(NS(=O)(=O)c2cc(-c3csc(C)n3)ccc2C)c(Cl)c1 — lower, -0.98
- Cc1cc(C(=O)NC[C@H]2CCCOC2)cc(O)n1 — higher, 0.64
- COc1cccc(Cc2c(C)nc(C3CC3)nc2N2CCN(C(=O)[C@H]3CCOC3)CC2)c1 — lower, -0.47
- Cc1cnc(NCCCS(C)(=O)=O)nc1 — higher, 0.62
- CCN(C(=O)N1CCC(OC2CCCCC2)CC1)C(C)C — higher, 0.09
- Cc1cc(=O)[nH]c(CCn2ccnc2-c2ccnc3ccccc23)n1 — higher, 2.47
- Fc1ccc(CO[C@H]2CCCc3c[nH]nc32)cc1Br — higher, 1.67
- CCC(CC)C(=O)N1CCC[C@H](N(CCN2CCCCC2)C(C)=O)C1 — higher, 1.17
- CCc1nc(-c2ccccc2)nc(N2CCN(C(=O)c3ccccc3Cl)CC2)c1Cc1cc(C)ccc1C — higher, 2.19
- O=c1c2ccccc2ncn1CCCc1ncnn1CCO — higher, 0.77
- Cc1cnccc1CC(=O)N[C@H](C)c1ccc(Br)cc1 — higher, 0.83
- Cc1cc(C)nc(CCNc2cc(C3CC(O)C3)nc(N)n2)n1 (configuration not stated) — higher, 1.33
- CN(Cc1csc(-c2ccoc2)n1)C1CCS(=O)(=O)CC1 — higher, 1.83
- Cc1ccc(N2CC[C@@](O)(C(F)(F)F)C2)nn1 — higher, 0.06
- CC1CCN(C(=O)NCCOCC2CCCO2)C(C)C1 (configuration not stated) — lower, -1.71
- O=C(COC1CCCC1)Nc1nc(-c2ccco2)cs1 — higher, 1.8
- C[C@H]1CCN(C(=O)c2coc(Br)c2)CCS1(=O)=O — lower, -0.79
- Cc1nc2n(n1)C[C@@H](Nc1ncc(Cl)cc1Br)CC2 — higher, 0.21
- CCCc1nc(CNC(=O)c2cnc[nH]2)cs1 — higher, 1.14
- COc1ccc(C2CC(C)N(C(=O)[C@@H]3CCCN3)C2)cc1 (some centres not stated) — higher, 0.58
- COc1ccccc1Oc1nc(N2CCN(C)CC2)nc2c1CN(C(=O)c1cccc(C)c1)CC2 — higher, 2.1
- CS(=O)(=O)CC1(CC(=O)N(C2CC2)[C@H]2CCc3ccccc32)CC1 — lower, -0.85
- COc1ccc([C@H]2NCCc3[nH]cnc32)cc1Cn1cncn1 — higher, 1.38
- Cc1cnn(Cc2cc(C(=O)NC3c4ccccc4CC3O)no2)c1 (configuration not stated) — higher, 1.25
- CCOc1cccc(NC(=O)N(C)Cc2nc(C)c[nH]2)c1 — higher, 0.15
- CC1CCN(C(=O)c2cnc3[nH]c(=O)[nH]c3c2)C(C(N)=O)C1 (configuration not stated) — higher, -0.07
- CN(Cc1ccc2nc(N)sc2c1)C1CC1 — higher, 0.47
- CC(C)CCNC(=O)CC[C@@H](C)[C@H]1CC[C@H]2[C@@H]3[C@@H](O)C[C@@H]4C[C@H](O)CC[C@]4(C)[C@H]3CC[C@]12C — higher, 0.5
- COc1ccc(-c2nc3c(c(N4CCN(C)CC4)n2)CCOCC3)cc1 — higher, 0.45
- CCCc1ncc(CNC(=O)[C@H](C)c2cn(C)c3ccccc23)o1 — higher, 1.09
- C#CC(CC)(CC)NS(=O)(=O)c1ccc(Cl)cc1 — higher, 0.54
- O=C(Nc1nsc(-c2ccc(Cl)cc2)n1)c1ccccc1F — higher, 1.31
- COc1ncc(C(=O)N2CCO[C@H](C(C)(C)C)CC2)cn1 — higher, 1.62
